The full ranking holds about 33,000 sequences; the median of “E-score (-0.5 to 0.5)” is about -0.021, and the highest 2% start at about 0.32. The list shows a part of the results.

The target of this test is T1, Zap1 (UniProt P47043).
T1 sequence: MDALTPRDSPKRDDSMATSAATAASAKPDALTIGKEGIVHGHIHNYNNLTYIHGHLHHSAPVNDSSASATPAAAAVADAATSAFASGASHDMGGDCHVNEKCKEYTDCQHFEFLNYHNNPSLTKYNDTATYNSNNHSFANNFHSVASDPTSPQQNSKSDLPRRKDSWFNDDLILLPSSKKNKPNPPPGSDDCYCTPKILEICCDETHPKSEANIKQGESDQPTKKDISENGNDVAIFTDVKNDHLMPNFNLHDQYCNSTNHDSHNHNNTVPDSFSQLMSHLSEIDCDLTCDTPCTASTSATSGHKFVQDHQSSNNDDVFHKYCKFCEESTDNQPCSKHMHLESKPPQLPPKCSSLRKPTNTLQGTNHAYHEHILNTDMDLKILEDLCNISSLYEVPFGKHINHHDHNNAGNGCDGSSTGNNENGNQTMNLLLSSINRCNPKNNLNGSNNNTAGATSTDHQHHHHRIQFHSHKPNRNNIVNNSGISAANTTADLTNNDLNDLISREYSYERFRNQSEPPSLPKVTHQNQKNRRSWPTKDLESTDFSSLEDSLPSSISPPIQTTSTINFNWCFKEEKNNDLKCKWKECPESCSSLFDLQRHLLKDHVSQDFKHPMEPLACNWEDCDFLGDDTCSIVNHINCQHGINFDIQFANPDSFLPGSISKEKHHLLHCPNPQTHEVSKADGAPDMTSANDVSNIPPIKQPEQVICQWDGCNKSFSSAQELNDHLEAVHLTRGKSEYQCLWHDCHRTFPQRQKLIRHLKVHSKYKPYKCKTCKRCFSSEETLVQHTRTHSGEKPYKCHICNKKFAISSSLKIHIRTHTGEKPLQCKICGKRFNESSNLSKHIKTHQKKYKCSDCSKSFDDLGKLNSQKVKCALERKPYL
Kind of test: PBM E-score (8-mer binding enrichment) (E-score (-0.5 to 0.5)); higher = stronger / more preferred TF binding; most listed sequences are background and not binding sites. To be noted: protein concentration: 200 nM; construct: GST-full length. The procedure, abridged: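 Universal all-10-mer Agilent arrays, fresh or stripped once, were converted to double-stranded form by primer extension. GST-tagged yeast transcription factors from PURExpress in vitro transcription/translation, full-length or DNA-binding domain only, were applied at about 100-200 nM and detected with fluorescent anti-GST. After masliner normalisation, the Universal PBM Analysis Suite scored each ungapped eight-base word together with its reverse complement by E-score.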
For the sequence CCTAAGAG, the “PBM E-score” value turned out to be 0.109.

Consider ACTTGGGC, for which the “PBM E-score” value was 0.0183.

With AGAGAACC, the “PBM E-score” value was 0.0338.

TGGCCCCA: the “PBM E-score” value is -0.102.

With ATCTTGCA, the “PBM E-score” value came out at 0.119.

Regarding CCGGACAC, the “PBM E-score” value was -0.0512.

In the case of GAAGCACC, the “PBM E-score” value was -0.14.

Turning to CCGTGCAG, the “PBM E-score” value came out at 0.029.

Take GACTACTC: the “PBM E-score” value was -0.184.

Regarding CTCGCCGA, the “PBM E-score” value was -0.179.

Regarding AGTATAAT, the “PBM E-score” value is 0.105.

Consider ACGTGTAC, for which the “PBM E-score” value is -0.092.

Take CAATCCAA: the “PBM E-score” value was 0.0784.

On to AGGCGTTA, for which the “PBM E-score” value is 0.0407.

For the sequence ATCGGATC, the “PBM E-score” value was -0.214.

In the case of CAAAGATA, the “PBM E-score” value stood at 0.0414.

As for TACTACCA, the “PBM E-score” value turned out to be 0.124.

CGTCCAGA: the “PBM E-score” value is -0.322.

In the case of GCATATCC, the “PBM E-score” value was -0.12.

In the case of CGAATTCG, the “PBM E-score” value was -0.233.

As to GAACGCGA, the “PBM E-score” value was -0.0568.

AGAGCAGA: the “PBM E-score” value is -0.196.

In the case of CGCGCACC, the “PBM E-score” value worked out at 0.00053.

With ATATGTAC, the “PBM E-score” value was 0.169.

On to ACCGTATA, for which the “PBM E-score” value was -0.00063.

For ATAGAAAA, the “PBM E-score” value came to 0.0702.

Take AAGCCGCT: the “PBM E-score” value was -0.214.

In the case of AGACGGAT, the “PBM E-score” value was determined as 0.0316.

On to CAGAGGCA, for which the “PBM E-score” value was -0.0607.

Take ACTCTCAC: the “PBM E-score” value amounted to 0.0136.

AGATACTG: the “PBM E-score” value was -0.0296.

For the sequence AATTGCGT, the “PBM E-score” value came out at 0.0206.

Consider CATAATAA, for which the “PBM E-score” value was determined as 0.0342.

Turning to CACACAGC, the “PBM E-score” value stood at 0.0274.

Turning to CCTGAATA, the “PBM E-score” value amounted to 0.16.

Regarding AATATTGC, the “PBM E-score” value was -0.0194.

AATGACGA: the “PBM E-score” value is -0.0215.

In the case of AAATGTGA, the “PBM E-score” value turned out to be 0.106.

In the case of CCTTGTCA, the “PBM E-score” value came out at 0.0134.

On to AGCGCTCA, for which the “PBM E-score” value was -0.246.

As for ACACGGTC, the “PBM E-score” value is 0.0091.

In the case of AGTTACAG, the “PBM E-score” value is 0.171.

With CACGATAG, the “PBM E-score” value was -0.0513.

As for CCAAATGA, the “PBM E-score” value is 0.197.

For the sequence AGCTGGGC, the “PBM E-score” value is -0.302.

For the sequence GCAGTCAA, the “PBM E-score” value is -0.169.

Turning to GATCATTA, the “PBM E-score” value is 0.0548.

Take CGAACGCC: the “PBM E-score” value was -0.304.

As for AGCGGAAT, the “PBM E-score” value was -0.227.

As for GGCATTGA, the “PBM E-score” value is -0.0797.

For the sequence AAATTCGA, the “PBM E-score” value is -0.0092.

Take AGATCGAC: the “PBM E-score” value was -0.0492.

For the sequence TCCACACA, the “PBM E-score” value was 0.0139.

Take CTAAAAAG: the “PBM E-score” value came to 0.196.

In the case of CAGTGTCG, the “PBM E-score” value was -0.178.

For GCCAAGGC, the “PBM E-score” value was -0.236.

Regarding AATATTTA, the “PBM E-score” value was determined as 0.137.

In the case of ATGCACTG, the “PBM E-score” value was -0.185.

For the sequence ATTGGGAG, the “PBM E-score” value was -0.0694.

TAGCAATA: the “PBM E-score” value is 0.106.

ACCAAAGA: the “PBM E-score” value is 0.245.

Turning to CACTACTC, the “PBM E-score” value turned out to be 0.111.

On to AGAACAAT, for which the “PBM E-score” value is 0.233.

On to CGTATAGC, for which the “PBM E-score” value is -0.0813.

For the sequence GTCGTAAA, the “PBM E-score” value turned out to be 0.0755.

As to CCAACACC, the “PBM E-score” value was -0.0192.

As to AAAACTCC, the “PBM E-score” value is -0.245.

For the sequence AAAGTGTG, the “PBM E-score” value amounted to 0.071.

Turning to AGTCTACG, the “PBM E-score” value is -0.144.

For the sequence CAGGGTAG, the “PBM E-score” value was 0.306.

On to GGTCCACC, for which the “PBM E-score” value was 0.0426.

Consider AGCAACAC, for which the “PBM E-score” value was -0.0488.

Turning to AGCTATCA, the “PBM E-score” value is -0.0689.

As for GTCCAGAC, the “PBM E-score” value was -0.136.

Regarding GCTACTGA, the “PBM E-score” value was -0.122.

For the sequence CCTGCAAA, the “PBM E-score” value was -0.129.

Take CAGTGACC: the “PBM E-score” value was determined as 0.276.

Take GAAAGAAA: the “PBM E-score” value is 0.111.

Take ACTCCCGA: the “PBM E-score” value is -0.0985.

AACGGTAA: the “PBM E-score” value is 0.134.

For GTAGGGTA, the “PBM E-score” value stood at 0.429.

With TACAAGAA, the “PBM E-score” value was 0.0792.

For the sequence GTAAGCAC, the “PBM E-score” value is -0.088.

For the sequence CTAGTCAC, the “PBM E-score” value is -0.042.

As to CCGGGCTA, the “PBM E-score” value was -0.185.

Turning to GTTGACAA, the “PBM E-score” value amounted to 0.152.

In the case of CACAGGTG, the “PBM E-score” value was -0.0962.

In the case of CTGCCCAA, the “PBM E-score” value was -0.118.

ATACGTGC: the “PBM E-score” value is -0.122.

Take AACTACCC: the “PBM E-score” value was 0.391.

In the case of AAGGTAGA, the “PBM E-score” value was 0.106.

For AGATTTAA, the “PBM E-score” value is -0.0153.

ACACGCGC: the “PBM E-score” value was -0.12.

As for CTAAGGCA, the “PBM E-score” value was -0.0776.

Source of the values: the supplement of paper PMC3334620.
